From paper PMC5892938
The other results are listed elsewhere or left out. At the low end of the ranking the order means little.

These sequences were tested against GST-SBP-SLBP (stem-loop binding protein) (UniProt Q14493) (assay: targeted RNA Bind-n-Seq). Conditions: RBNS binding buffer: 25 mM Tris pH 7.5, 150 mM KCl, 3 mM MgCl2, 0.1% Tween, 0.5 mg/mL BSA, 1 mM DTT; 27 nM protein, 750 pM RNA pool; temperature not stated; high values mean tight binding.
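Further: DESeq read counts versus GST-SBP nonspecific binding control pulldown.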

Sequence | binding signal (log2 fold change)
GGUCACGUCUCAAUCAACUCAUCCCCAGGAGUUUUCUCCUGUAGUCUCAACAGCUCGCAGUCAAG | 0.234
GGUCACGUCUCAAUCAACUCUAUCCCAGGAGUUUUCUCCUGCAAACUCAACAGCUCGCAGUCAAG | 0.00195
GGUCACGUCUCAAUCAACUCUUCUCCAGGAGUUUUCUCCUGCAAUUUCAACAGCUCGCAGUCAAG | 0.00657
GGUCACGUCUCAAUCAACUCUUCCUCCAGGGAAACCCCUGGUUAUCUCAACAGCUCGCAGUCAAG | 0.158
GGUCACGUCUCAAUCAACUCCCACGAGGGGGGGAAAACCCCUUUACCCUCACCAUCAACAGCUCGCAGUCAAG | -0.0344
GGUCACGUCUCAAUCAACUCAUUCCCAGGAGUUUGCUCCUGCAAUUUCAACAGCUCGCAGUCAAG | 0.0804
GGUCACGUCUCAAUCAACUCAUUUUCCAGGGAAAGCCCUGGCAAUCUCAACAGCUCGCAGUCAAG | -0.00336
GGUCACGUCUCAAUCAACUCUAUUCCCAGGGAAAACCCUGGUUAUUUCAACAGCUCGCAGUCAAG | 0.0306
GGUCACGUCUCAAUCAACUCAUUCCCCAGGGAAAGCCCUGGCAUUUUCAACAGCUCGCAGUCAAG | 0.0455
GGUCACGUCUCAAUCAACUCUUCCUCCAGGGAAAUCCCUGGCUUAUUCAACAGCUCGCAGUCAAG | -0.196
GGUCACGUCUCAAUCAACUCUUCUUCAGGAGUUUUCUCCUGUAUUCUCAACAGCUCGCAGUCAAG | -0.0332
GGUCACGUCUCAAUCAACUCAGUUUCAGGAGUUUGCUCCUGCUUUUUCAACAGCUCGCAGUCAAG | 0.122
GGUCACGUCUCAAUCAACUCUAUUUCAGGAGUUUCCUCCUGCAAUCUCAACAGCUCGCAGUCAAG | 0.204
GGUCACGUCUCAAUCAACUCUACUUCCAGGGAAACCCCUGGCUUUUUCAACAGCUCGCAGUCAAG | 0.2
GGUCACGUCUCAAUCAACUCUUCCCCAGGAGUUUCCUCCUGUAUUUUCAACAGCUCGCAGUCAAG | -0.0432
GGUCACGUCUCAAUCAACUCUUCCUCAGGAGUUUUCUCCUGCUAUGUCAACAGCUCGCAGUCAAG | 0.151
GGUCACGUCUCAAUCAACUCUUUUUCAGGAGUUUACUCCUGUUUUUUCAACAGCUCGCAGUCAAG | -0.0162
GGUCACGUCUCAAUCAACUCAUCUUCCAGGGAAAGCCCUGGUUUAUUCAACAGCUCGCAGUCAAG | -0.055
GGUCACGUCUCAAUCAACUCUUUUCCAGGAGUUUCCUCCUGUAUAUUCAACAGCUCGCAGUCAAG | -0.0999
GGUCACGUCUCAAUCAACUCCCAAGAGGGGGGGAAAACCCCUUUACCCUCCUUAUCAACAGCUCGCAGUCAAG | -0.347
GGUCACGUCUCAAUCAACUCAUCUUCCAGGGAAAUCCCUGGCUUACUCAACAGCUCGCAGUCAAG | -0.0632
